{"source": "ChEMBL document CHEMBL4888484", "about": "“Replenishing the malaria drug discovery pipeline: Screening and hit evaluation of the MMV Hit Generation Library 1 (HGL1) against asexual blood stage Plasmodium falciparum ,using a nano luciferase reporter read-out” (2022)", "note": "The whole screen tested about 150,000 compounds, of which about 540 (0.36%) showed an effect of 50% or more. The list shows a part of the results."}
{"test_system": "Plasmodium falciparum", "test": "Primary screen in NF54 nanoGlo assay, in single point, at 2uM, 72h; a lower Z score goes with more inhibition", "format": "functional, Erythrocyte", "settings": "timepoint 72 hour", "units": {"% Inhibition": "%"}}
{"compound": "C[C@@H]1CC(=O)N[C@H](C(=O)NCc2ccncc2OCC(F)(F)F)C1", "% Inhibition": -10, "Z score": 1.37}
{"compound": "CN(C(=O)[C@H]1C[C@@H]1C(F)F)C1CC(O)C1", "note": "(stereo partly specified)", "% Inhibition": -10, "Z score": 1.06}
{"compound": "CC(NC(=O)OC(C)(C)C)C1CCCCN1C(N)=O", "note": "(stereo unspecified)", "% Inhibition": -2, "Z score": 0.27}
{"compound": "O=C(NCc1cccc(C(=O)N2CCCC2)c1)C1CC1c1ccco1", "note": "(stereo unspecified)", "% Inhibition": -9, "Z score": 1.23}
{"compound": "N#Cc1ccc(Cl)c(S(=O)(=O)N2CCO[C@H](C3CC3)C2)c1", "% Inhibition": -9, "Z score": 1.72}
{"compound": "COc1ccccc1CNC(=O)[C@]1(C)Cn2nc(-c3ccccc3)cc2C(=O)N1c1cccc(C)c1C", "% Inhibition": -3, "Z score": 0.46}
{"compound": "COc1ncnc(C)c1-c1cccc(C(=O)NC[C@@]2(C)CCCO2)c1", "% Inhibition": 4, "Z score": -0.76}
{"compound": "O=C(NCCc1nc2c(c(C(F)(F)F)n1)COCC2)c1ccsc1", "% Inhibition": -8, "Z score": 1.61}
{"compound": "O=C(NC1CC1)C1Cc2cc(C(F)(F)F)ccc2N2CCN(Cc3ccccc3)CC12", "note": "(stereo unspecified)", "% Inhibition": 4, "Z score": -0.49}
{"compound": "COc1ccccc1-c1nnc([C@H]2CCN(C3CCCCC3)C2)o1", "% Inhibition": -7, "Z score": 1.08}
{"compound": "CCN(c1ccccc1)S(=O)(=O)c1cc(Br)cnc1N", "% Inhibition": -11, "Z score": 2.35}
{"compound": "Cc1ccc(-c2ccc(CCC(=O)NCC3CC3)n2-c2ccc(CC#N)cc2)c(C)c1", "% Inhibition": -12, "Z score": 1.16}
{"compound": "COc1nc(NC(Cc2ccccn2)[C@H]2C[C@H](O)C2)ncc1F", "note": "(stereo partly specified)", "% Inhibition": 0, "Z score": -0.02}
{"compound": "FC(F)(F)C1CC(NCc2ncc[nH]2)C1", "note": "(stereo unspecified)", "% Inhibition": -6, "Z score": 0.7}
{"compound": "Cc1ccc(NC(=O)N2C[C@@H]3CCCN3c3ccccc32)c(C)c1", "% Inhibition": -3, "Z score": 0.42}
{"compound": "Cc1nc(-c2ccccc2)ncc1C(=O)N1CC[C@H](CS(N)(=O)=O)C1", "% Inhibition": -4, "Z score": 0.78}
{"compound": "CC1(C)CN(C(=O)Cc2cccc(Br)c2)CC[S@@+]1[O-]", "% Inhibition": 30, "Z score": -3.34}
{"compound": "Cc1nn(Cc2ccccc2)c2nc(-c3nn(C)cc3Cl)[nH]c12", "% Inhibition": 0, "Z score": 0.02}
{"compound": "CS(=O)(=O)N1C[C@H]2CC[C@@H](C1)N(C(=O)c1onc3c1CCCC3)C2", "% Inhibition": -19, "Z score": 2.58}
{"compound": "COc1ccc(CC[C@H](C)N2CCC(=O)N(CCN3CCCCC3)CC2)cc1", "% Inhibition": 2, "Z score": -0.23}
{"compound": "CN1C[C@@]2(CCN(C(=O)CC3CCCC3)C2)OCC1=O", "% Inhibition": 3, "Z score": -0.48}
{"compound": "Cc1cc2ncnc(N3CCC(Cn4cnc(C)c(C)c4=O)CC3)c2[nH]1", "% Inhibition": 1, "Z score": -0.17}
{"compound": "O=C(c1ccoc1)N1CC(Cn2ccnn2)C1", "% Inhibition": -4, "Z score": 0.86}
{"compound": "COCCNC(=O)c1ccc(CC2CCN(C(=O)c3cccn3C)CC2)cc1", "% Inhibition": -4, "Z score": 0.54}
{"compound": "O=C(c1cc[n+]([O-])cc1)N1CCO[C@H](c2ccccc2)C1", "% Inhibition": -36, "Z score": 4.19}
{"compound": "O=C(c1cc(C2CC2)no1)N1CC[C@H](Oc2ccc(Cl)c(Cl)c2)C1", "% Inhibition": 7, "Z score": -0.9}
{"compound": "CC(C)C(C)(NCC1CCN1C(=O)OC(C)(C)C)C(N)=O", "note": "(stereo unspecified)", "% Inhibition": -5, "Z score": 0.8}
{"compound": "CNc1nc(C(=O)NCc2nccn2C(C)C)cs1", "% Inhibition": -14, "Z score": 1.99}
{"compound": "COCCn1cc2c(n1)[C@@H](Nc1ccnc(C3CC3)n1)CCC2", "% Inhibition": 7, "Z score": -0.92}
{"compound": "CC(C)c1nnc(NC(=O)c2cccc(N(C)C)c2)s1", "% Inhibition": 32, "Z score": -3.68}
{"compound": "CC1=N[C@H]2CC(=O)NN2C(C)=C1CCC(=O)NCCOc1ccccc1F", "% Inhibition": -6, "Z score": 0.74}
{"compound": "Cc1c(NC(=O)CN(C)Cc2cnc3ccccc3c2)cnn1C", "% Inhibition": -11, "Z score": 1.76}
{"compound": "CC(C)Oc1ccc2c(NC(=O)[C@@H](N)CO)nn(Cc3ccccc3)c2c1", "% Inhibition": 2, "Z score": -0.39}
{"compound": "Cc1ncc(S(=O)(=O)N2CCC[C@H](n3ccnn3)C2)s1", "% Inhibition": 3, "Z score": -0.42}
{"compound": "Cc1nc(-c2ccco2)ccc1C(=O)N[C@H]1CCC(=O)N(C)C1", "% Inhibition": -6, "Z score": 0.84}
{"compound": "C[C@@H](c1ccccn1)N(Cc1ccccc1)C(=O)c1cnn(C)c1", "% Inhibition": -2, "Z score": 0.18}
{"compound": "O=C(CCn1c(=O)[nH]c2ccccc21)N1C[C@@H]2[C@@H]3CC[C@@H](C3)[C@@H]2C1", "% Inhibition": -11, "Z score": 1.43}
{"compound": "CC1=C(C)CC(C(=O)N2CCN(c3cccc(C(F)(F)F)c3)CC2)C(C(=O)O)C1", "note": "(stereo unspecified)", "% Inhibition": -1, "Z score": 0.17}
{"compound": "Cc1noc(CN(C)CC(=O)N2CCCC2)n1", "% Inhibition": 1, "Z score": -0.11}
{"compound": "COc1ccc(C(F)(F)C(=O)NC(C)C2CN(C)CCO2)cc1", "note": "(stereo unspecified)", "% Inhibition": 0, "Z score": -0.03}
{"compound": "CC(C)n1cc(NC(=O)N(C)[C@@H](C)CC#N)cn1", "% Inhibition": 6, "Z score": -0.73}
{"compound": "Nc1ncnc(NC[C@H]2CCN(c3ccccc3)C2)c1Cl", "% Inhibition": -13, "Z score": 1.37}
{"compound": "CCc1c(C)sc(NC(=O)c2cccc(-n3cnnn3)c2)c1C#N", "% Inhibition": -6, "Z score": 0.72}
{"compound": "Cc1c(-c2noc(C(=O)NC3CCCCCC3)n2)oc2c(C)cccc12", "% Inhibition": -7, "Z score": 1.07}
{"compound": "Cc1cc(F)cc(C(=O)NS(=O)(=O)CC(C)C)c1", "% Inhibition": 0, "Z score": -0.02}
{"compound": "Cc1ccnc(-n2cccc2-c2cc(-c3cn(C)nc3C)nc(N)c2C#N)c1", "% Inhibition": -10, "Z score": 1.3}
{"compound": "CCS(=O)(=O)N1CCN(C2CCC(c3ccccc3)CC2)CC1", "note": "(stereo unspecified)", "% Inhibition": 9, "Z score": -1.03}
{"compound": "O=C(N[C@H]1CCOC12CCOCC2)c1ccc2c(c1)CCCC2=O", "% Inhibition": -5, "Z score": 0.63}
{"compound": "O=C1N[C@H]2CCC[C@@H]1CN(Cc1nc(-c3ccccc3)no1)C2", "% Inhibition": -8, "Z score": 0.79}
{"compound": "COC(=O)CNC(=O)[C@@H](CC(C)C)NC(=O)[C@H]1CCCN1C(=O)OC(C)(C)C", "% Inhibition": -10, "Z score": 1.23}
{"compound": "COC(=O)C1CC(Oc2ccccc2F)CN1C(=O)c1ccccc1", "note": "(stereo unspecified)", "% Inhibition": -10, "Z score": 1.82}
{"compound": "COc1ccc(CCNC(=O)c2n[nH]c3c2CN(C(=O)Cc2ccc(Cl)c(Cl)c2)CC3)cc1OC", "% Inhibition": 11, "Z score": -1.34}
{"compound": "CCCc1nc(C)c(CNCc2cnc(NC[C@H]3CCCO3)nc2)s1", "% Inhibition": -10, "Z score": 1.64}
{"compound": "CC(C)CC(=O)N1CCC[C@H](Oc2nc(C3CC3)nc3c2CCOCC3)C1", "% Inhibition": -13, "Z score": 1.23}
{"compound": "Cc1n[nH]c(C)c1[C@H](C)NC(=O)Cc1ccc(O)c(F)c1", "% Inhibition": -16, "Z score": 1.52}
{"compound": "Cc1c(Cl)ccc2c1NC(=O)C2(c1c[nH]c2ccccc12)c1c[nH]c2ccccc12", "% Inhibition": -3, "Z score": 0.41}
{"compound": "O=C(NC1(C(=O)NC2CCCC2)CCCCC1)c1ccc2c(c1)OCO2", "% Inhibition": -1, "Z score": 0.17}
{"compound": "COCC1(C(=O)NCCOCc2ccccc2)CCC1", "% Inhibition": -3, "Z score": 0.6}
{"compound": "Cc1c(Cl)cccc1NC(=O)N[C@H]1CCN(Cc2noc(-c3ccccc3)n2)C1", "% Inhibition": -6, "Z score": 0.87}
{"compound": "CC(=O)Nc1nc2ccc(NC(=O)c3cc(Cl)c4c(c3)OCCCO4)cc2s1", "% Inhibition": -3, "Z score": 0.47}
{"compound": "C[C@H]1CCCCN1CCNC(=O)CCc1cn(C)nc1-c1ccc(F)cc1", "% Inhibition": -10, "Z score": 1.32}
{"compound": "CC(C)N1CC[C@H](n2nc(C(C)(C)C)ccc2=O)C1=O", "% Inhibition": -2, "Z score": 0.33}
{"compound": "C[C@@H]1CN(Cc2cccc(-c3cccnc3)c2)CC(C(N)=O)O1", "note": "(stereo partly specified)", "% Inhibition": -11, "Z score": 0.97}
{"compound": "Cc1ccc(F)cc1NC(=O)c1cc(F)ccc1-n1ccnc1", "% Inhibition": 0, "Z score": 0.03}
{"compound": "CN1CCN(Cc2nccn2CC(F)(F)F)c2ccccc21", "% Inhibition": 12, "Z score": -1.37}
{"compound": "Cc1c(F)cccc1S(=O)(=O)N[C@@H](C)C(N)=O", "% Inhibition": 2, "Z score": -0.32}
{"compound": "CCOc1ccccc1NC(=O)N(CC)c1nc(-c2ccc(C3CCCCC3)cc2)cs1", "% Inhibition": -5, "Z score": 0.89}
{"compound": "COc1nn(C)cc1CNC(=O)C1(c2ccccc2C)CCCCC1", "% Inhibition": -1, "Z score": 0.22}
{"compound": "CO[C@@H](CS(=O)(=O)Nc1cc(O)c(Cl)cc1Cl)C(C)C", "% Inhibition": 5, "Z score": -0.98}
{"compound": "O=C(c1ccc(F)cc1F)N1CCC2(CC1)OC[C@@H](C(=O)N1CCCC1)N2C(=O)c1ccccc1", "% Inhibition": -2, "Z score": 0.22}
{"compound": "C[C@](O)(CNC(=O)CC1CC1)c1cc2ccccc2s1", "% Inhibition": -21, "Z score": 2.67}
{"compound": "CC[C@H](C)Oc1cccc2c1cc(C(=O)N1CCN(Cc3ccc4c(c3)OCO4)CC1)n2Cc1ccccc1", "% Inhibition": -12, "Z score": 1.41}
{"compound": "CCN(Cc1noc(CC(C)C)n1)C(=O)c1cc(C)[nH]c(=O)c1", "% Inhibition": -9, "Z score": 1.39}
{"compound": "FC(F)(F)Cn1nnnc1CN1CCCCC2CCCCC21", "note": "(stereo unspecified)", "% Inhibition": -12, "Z score": 1.17}
{"compound": "O=S(=O)(c1ccc(Cl)s1)N1CC[C@H](c2noc(C(F)(F)F)n2)C1", "% Inhibition": 8, "Z score": -1.36}
{"compound": "CC(C)c1cccc(Cn2c(N)nc(C#N)c2C#N)n1", "% Inhibition": -8, "Z score": 0.77}
{"compound": "COCCOC(=O)N1CCCC[C@H](NC(=O)c2ccoc2C)C1", "% Inhibition": 2, "Z score": -0.33}
{"compound": "Cn1nncc1NC(=O)c1ccccc1OCC1CC1", "% Inhibition": 3, "Z score": -0.47}
{"compound": "FC(F)(F)c1cccnc1N1CCC[C@H](C2OCCO2)C1", "% Inhibition": -15, "Z score": 2.26}
{"compound": "COC(=O)[C@]1(C)CN(C(=O)c2cc(Cl)c(N)c(Cl)c2)C[C@H]1C", "% Inhibition": -3, "Z score": 0.39}
{"compound": "O=C(O)Cc1cccc(C(=O)NC2(Cc3cccc(F)c3)CCC2)c1", "% Inhibition": -15, "Z score": 1.99}
{"compound": "Clc1cccc(CN(CCCN2CCCCCC2)C2CCOCC2)c1", "% Inhibition": 8, "Z score": -1.31}
{"compound": "CC(COC1CCCC1)CS(=O)(=O)N1CCC(C)C(n2ccnc2)C1", "note": "(stereo unspecified)", "% Inhibition": -11, "Z score": 2.15}
